The source of these data is article PMC9911399, “Two distinct binding modes provide the RNA-binding protein RbFox with extraordinary sequence specificity”.

First the molecules themselves.
B1: CGAAUUA (DNA:RNA)
RNA: GGGAGACCGGAAUUCAGAUUGUCCCGAAUUAUUAAAUCCCGUCGUAGCCACCA
DNA 1: CAATCTGAATTCCGGTCTCCC
DNA 2: TGGTGGCTACGACGGGATT
B2: CUAUACG (DNA:RNA)
RNA: B1 RNA with G26U, A28U, U29A, U30C, A31G
DNA 1: CAATCTGAATTCCGGTCTCCC
DNA 2: TGGTGGCTACGACGGGATT
B3: AGGAAGA (DNA:RNA)
RNA: B1 RNA with C25A, A27G, U29A, U30G
DNA 1: CAATCTGAATTCCGGTCTCCC
DNA 2: TGGTGGCTACGACGGGATT
B4: UAAGCUU (DNA:RNA)
RNA: B1 RNA with C25U, G26A, A28G, U29C, A31U
DNA 1: CAATCTGAATTCCGGTCTCCC
DNA 2: TGGTGGCTACGACGGGATT
B5: GACUUGU (DNA:RNA)
RNA: B1 RNA with C25G, G26A, A27C, A28U, U30G, A31U
DNA 1: CAATCTGAATTCCGGTCTCCC
DNA 2: TGGTGGCTACGACGGGATT
B6: ACGUGAA (DNA:RNA)
RNA: B1 RNA with C25A, G26C, A27G, A28U, U29G, U30A
DNA 1: CAATCTGAATTCCGGTCTCCC
DNA 2: TGGTGGCTACGACGGGATT
B7: UUCGGUC (DNA:RNA)
RNA: B1 RNA with C25U, G26U, A27C, A28G, U29G, A31C
DNA 1: CAATCTGAATTCCGGTCTCCC
DNA 2: TGGTGGCTACGACGGGATT
B8: GACGCAC (DNA:RNA)
RNA: GGGAGACCGGAAUUCAGAUUGUCCGACGCACUUAAAUCCCGUCGUAGCCACCA
DNA 1: CAATCTGAATTCCGGTCTCCC
DNA 2: TGGTGGCTACGACGGGATT
B9: CAGGAUC (DNA:RNA)
RNA: B8 RNA with G25C, C27G, C29A, A30U
DNA 1: CAATCTGAATTCCGGTCTCCC
DNA 2: TGGTGGCTACGACGGGATT
B10: GUUAUCC (DNA:RNA)
RNA: B1 RNA with C25G, G26U, A27U, U30C, A31C
DNA 1: CAATCTGAATTCCGGTCTCCC
DNA 2: TGGTGGCTACGACGGGATT
B11: CGAGCAA (DNA:RNA)
RNA: B1 RNA with A28G, U29C, U30A
DNA 1: CAATCTGAATTCCGGTCTCCC
DNA 2: TGGTGGCTACGACGGGATT
B12: CUUAUGA (DNA:RNA)
RNA: B1 RNA with G26U, A27U, U30G
DNA 1: CAATCTGAATTCCGGTCTCCC
DNA 2: TGGTGGCTACGACGGGATT
B13: GAAACUA (DNA:RNA)
RNA: B1 RNA with C25G, G26A, U29C
DNA 1: CAATCTGAATTCCGGTCTCCC
DNA 2: TGGTGGCTACGACGGGATT
B14: UUCAGUG (DNA:RNA)
RNA: B1 RNA with C25U, G26U, A27C, U29G, A31G
DNA 1: CAATCTGAATTCCGGTCTCCC
DNA 2: TGGTGGCTACGACGGGATT
B15: ACAGCGA (DNA:RNA)
RNA: B1 RNA with C25A, G26C, A28G, U29C, U30G
DNA 1: CAATCTGAATTCCGGTCTCCC
DNA 2: TGGTGGCTACGACGGGATT
B16: GACACAA (DNA:RNA)
RNA: B8 RNA with G28A, C31A
DNA 1: CAATCTGAATTCCGGTCTCCC
DNA 2: TGGTGGCTACGACGGGATT
B17: GGGAUAA (DNA:RNA)
RNA: B1 RNA with C25G, A27G, U30A
DNA 1: CAATCTGAATTCCGGTCTCCC
DNA 2: TGGTGGCTACGACGGGATT
B18: ACAAAAA (DNA:RNA)
RNA: B1 RNA with C25A, G26C, U29A, U30A
DNA 1: CAATCTGAATTCCGGTCTCCC
DNA 2: TGGTGGCTACGACGGGATT
B19: CUCCGAG (DNA:RNA)
RNA: B8 RNA with G25C, A26U, G28C, C29G, C31G
DNA 1: CAATCTGAATTCCGGTCTCCC
DNA 2: TGGTGGCTACGACGGGATT
B20: GUGAGAG (DNA:RNA)
RNA: B8 RNA with A26U, C27G, G28A, C29G, C31G
DNA 1: CAATCTGAATTCCGGTCTCCC
DNA 2: TGGTGGCTACGACGGGATT
B21: AUUCGAA (DNA:RNA)
RNA: B1 RNA with C25A, G26U, A27U, A28C, U29G, U30A
DNA 1: CAATCTGAATTCCGGTCTCCC
DNA 2: TGGTGGCTACGACGGGATT
B22: UAACGCC (DNA:RNA)
RNA: B8 RNA with G25U, C27A, G28C, C29G, A30C
DNA 1: CAATCTGAATTCCGGTCTCCC
DNA 2: TGGTGGCTACGACGGGATT
B23: CGUUGUA (DNA:RNA)
RNA: B1 RNA with A27U, A28U, U29G
DNA 1: CAATCTGAATTCCGGTCTCCC
DNA 2: TGGTGGCTACGACGGGATT
B24: UCAGUCU (DNA:RNA)
RNA: B1 RNA with C25U, G26C, A28G, U30C, A31U
DNA 1: CAATCTGAATTCCGGTCTCCC
DNA 2: TGGTGGCTACGACGGGATT
B25: CACCAUG (DNA:RNA)
RNA: B1 RNA with G26A, A27C, A28C, U29A, A31G
DNA 1: CAATCTGAATTCCGGTCTCCC
DNA 2: TGGTGGCTACGACGGGATT
B26: AAUUAUG (DNA:RNA)
RNA: B1 RNA with C25A, G26A, A27U, A28U, U29A, A31G
DNA 1: CAATCTGAATTCCGGTCTCCC
DNA 2: TGGTGGCTACGACGGGATT
B27: AGCGAUG (DNA:RNA)
RNA: B1 RNA with C25A, A27C, A28G, U29A, A31G
DNA 1: CAATCTGAATTCCGGTCTCCC
DNA 2: TGGTGGCTACGACGGGATT
B28: AUACACC (DNA:RNA)
RNA: B1 RNA with C25A, G26U, A28C, U29A, U30C, A31C
DNA 1: CAATCTGAATTCCGGTCTCCC
DNA 2: TGGTGGCTACGACGGGATT
B29: GCAAGUC (DNA:RNA)
RNA: B1 RNA with C25G, G26C, U29G, A31C
DNA 1: CAATCTGAATTCCGGTCTCCC
DNA 2: TGGTGGCTACGACGGGATT
B30: CAAGUUC (DNA:RNA)
RNA: B1 RNA with G26A, A28G, A31C
DNA 1: CAATCTGAATTCCGGTCTCCC
DNA 2: TGGTGGCTACGACGGGATT
B31: GGGUGGA (DNA:RNA)
RNA: B1 RNA with C25G, A27G, A28U, U29G, U30G
DNA 1: CAATCTGAATTCCGGTCTCCC
DNA 2: TGGTGGCTACGACGGGATT

Numbering of substitutions follows the chain as printed; changes in the protein carry UniProt numbers. The list shows a part of the results.

The target of this assay is T1, RBFOX1 RRM RbFoxmut (Fox-RRM*) (Homo sapiens, UniProt Q9NWB1 109-208, R118D;E147R;N151S;E152T).
T1 sequence: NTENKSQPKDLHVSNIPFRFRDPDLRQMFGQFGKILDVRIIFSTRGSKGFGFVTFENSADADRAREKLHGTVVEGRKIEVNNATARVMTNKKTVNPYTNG
The assay can be described thus: EMSA; HiTS-Eq, 1 nM pool, 10 min; buffer printed only for the single-RNA assays: 10 mM Tris pH 7.5, 150 mM NaCl, 3.4 mM EDTA, 0.001% NP-40, 30 C. Conditions: tags: His6 N-terminal (pET28a); label: 5' 32P. Put shortly:
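Relative association constants, normalised to the cognate motif, were derived by comparing read counts of each RNA species with those of the control reaction. The RNA sequenced was the free fraction, separated by 8% native PAGE after a 10 min equilibration in 50 µL of 1 nM 5′-radiolabelled RNA (7 randomized nucleotides) with increasing concentrations of purified wild-type or mutant RbFox RRM.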
On to B1, for which the binding signal was 0.12 KA relative to UGCAUGU.
With B2 the figure was 0.117 KA relative to UGCAUGU.
With B3 the figure was 0.0888 KA relative to UGCAUGU; with B4, 0.0842 KA relative to UGCAUGU.
Next, B5: 0.201 KA relative to UGCAUGU; B6: 0.113 KA relative to UGCAUGU.
In the case of B7, the binding signal was 0.0775 KA relative to UGCAUGU.
Next, B8: 0.103 KA relative to UGCAUGU.
B9: the binding signal is 0.0958 KA relative to UGCAUGU.
In the case of B10, the binding signal is 0.0984 KA relative to UGCAUGU.
B11: the binding signal was 0.0729 KA relative to UGCAUGU.
With B12 the figure was 0.107 KA relative to UGCAUGU.
Next, B13: 0.115 KA relative to UGCAUGU.
Regarding B14, the binding signal was 0.131 KA relative to UGCAUGU.
With B15 the figure was 0.0908 KA relative to UGCAUGU.
With B16 the figure was 0.0477 KA relative to UGCAUGU; with B17, 0.118 KA relative to UGCAUGU.
As to B18, the binding signal was 0.0956 KA relative to UGCAUGU.
Turning to B19, the binding signal was 0.0995 KA relative to UGCAUGU.
For B20, the binding signal was 0.133 KA relative to UGCAUGU.
Next, B21: 0.114 KA relative to UGCAUGU.
Next, B22: 0.072 KA relative to UGCAUGU; B23: 0.258 KA relative to UGCAUGU; B24: 0.0639 KA relative to UGCAUGU.
Take B25: the binding signal is 0.11 KA relative to UGCAUGU.
With B26 the figure was 0.125 KA relative to UGCAUGU; with B27, 0.163 KA relative to UGCAUGU.
With B28 the figure was 0.0602 KA relative to UGCAUGU; with B29, 0.058 KA relative to UGCAUGU; with B30, 0.0878 KA relative to UGCAUGU.
For B31, the binding signal is 0.0811 KA relative to UGCAUGU.
